# According to paper PMC4336329 (PLoS ONE, 2015):
# Out of some 310,000 compounds screened, about 2,200 (0.71%) showed an effect of 50% or more. The effect is printed as a negative number. Some of the results follow.
# Target: human ether-à-go-go-related gene (hERG) potassium channel (human, UniProt Q12809)
# Experiment: primary screen, population patch clamp on CHO cells stably expressing hERG
# human ether-à-go-go-related gene (hERG) potassium channel, sequence (Q12809 whole entry, looked up): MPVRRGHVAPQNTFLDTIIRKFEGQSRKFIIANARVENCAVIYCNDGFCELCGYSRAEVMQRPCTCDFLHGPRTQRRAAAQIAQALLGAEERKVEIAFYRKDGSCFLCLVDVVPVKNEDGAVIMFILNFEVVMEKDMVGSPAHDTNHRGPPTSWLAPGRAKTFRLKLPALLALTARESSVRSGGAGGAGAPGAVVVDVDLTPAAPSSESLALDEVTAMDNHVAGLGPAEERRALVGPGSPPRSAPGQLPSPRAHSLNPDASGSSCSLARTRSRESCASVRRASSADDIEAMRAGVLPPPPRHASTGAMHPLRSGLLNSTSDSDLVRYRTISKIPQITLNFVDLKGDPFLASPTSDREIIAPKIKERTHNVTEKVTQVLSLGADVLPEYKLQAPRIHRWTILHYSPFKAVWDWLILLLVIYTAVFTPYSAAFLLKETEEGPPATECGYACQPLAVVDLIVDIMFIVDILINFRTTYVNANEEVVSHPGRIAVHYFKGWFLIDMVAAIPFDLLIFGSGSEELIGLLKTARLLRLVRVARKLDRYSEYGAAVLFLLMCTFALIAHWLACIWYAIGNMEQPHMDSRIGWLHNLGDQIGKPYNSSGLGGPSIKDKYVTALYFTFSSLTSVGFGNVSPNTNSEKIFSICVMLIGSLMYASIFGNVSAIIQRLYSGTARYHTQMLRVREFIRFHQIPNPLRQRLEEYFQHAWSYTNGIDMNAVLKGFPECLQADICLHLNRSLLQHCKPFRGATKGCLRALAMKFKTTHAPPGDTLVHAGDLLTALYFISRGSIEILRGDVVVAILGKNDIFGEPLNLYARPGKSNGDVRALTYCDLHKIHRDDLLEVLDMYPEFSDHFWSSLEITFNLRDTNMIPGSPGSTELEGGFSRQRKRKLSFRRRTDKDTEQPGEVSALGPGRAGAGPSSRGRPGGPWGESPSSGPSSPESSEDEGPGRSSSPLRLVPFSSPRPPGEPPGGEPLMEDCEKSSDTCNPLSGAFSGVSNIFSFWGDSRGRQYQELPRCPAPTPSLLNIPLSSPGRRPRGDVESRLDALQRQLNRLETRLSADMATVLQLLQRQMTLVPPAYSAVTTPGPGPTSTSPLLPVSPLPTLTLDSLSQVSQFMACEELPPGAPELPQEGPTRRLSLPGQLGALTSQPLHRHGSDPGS
row,Compound,"hERG current change (%, negative = inhibition) at 1uM"
1,COc1cc(C(=O)OCC(=O)NC2CCS(=O)(=O)C2)c([N+](=O)[O-])cc1OC (stereo not shown),1.32%
2,CCCCn1c(=O)[nH]c(=O)c2c1nc(-c1ccc(-c3ccc(F)cc3)o1)n2C,2.23%
3,Cc1nn(Cc2ccccc2)c(C)c1NC(=O)CCCn1nc([N+](=O)[O-])c(Cl)c1C,3.32%
4,CCN(CC)S(=O)(=O)c1ccc(C2CNC(=O)C2)cc1 (stereo not shown),-53.8%
5,O=[N+]([O-])c1ccc(COc2cccnc2)cc1,-4.98%
6,Cc1cc([N+](=O)[O-])ccc1NC(=O)CN1CCN(Cc2ccccc2)CC1,-73.7%
7,Cc1cc(OCC(=O)N(C(C)C)C(C)C)cc(C)c1Br,1.1%
8,Cc1ccc2oc(=O)n(CC(=O)OCCC(C)C)c2c1,14.1%
9,Cc1noc2ncnc(N3CCN(c4cccc(Cl)c4)CC3)c12,-15.1%
10,Cc1ccc(NC(=O)c2cc3c(s2)CCCC3)cc1,1.24%
11,Cc1cccc(Oc2ccccc2N)c1,2.89%
12,Cc1cccc(N2CCN(S(=O)(=O)c3cccc4nonc34)CC2C)c1 (stereo not shown),12.5%
13,COc1cccc(NC(=O)CN(C)C(=O)c2cccnc2Nc2cccc(C(F)(F)F)c2)c1,16.5%
14,COc1cc(S(=O)(=O)NCc2ccncc2)c(OC)cc1Cl,8.65%
15,CCCC(=O)N1CC(=O)Nc2ccc(Br)cc2C1c1ccc(F)cc1 (stereo not shown),1.29%
16,O=C(Nc1cccc(-c2cnc3ccccc3n2)c1)c1ccco1,-21.6%
17,CC(C)(C)C1CCc2onc(C(=O)Nc3cnn(Cc4ccc(F)cc4)c3)c2C1 (stereo not shown),11.3%
18,COc1ccccc1-c1nc2ccccc2c(=O)n1NC(=O)c1cccs1,13%
19,CN(C)C(/C=C/Nc1ccc(F)cc1)=C(C#N)C#N,10.3%
20,CCCN(CCC)CCCNC(=O)CC1Nc2ccccc2NC1=O (stereo not shown),7.84%
21,CCCN1CCCc2ccccc21.Cl,14.9%
22,COCc1cc(C)nc(OCC(=O)N/N=C/c2ccc(-c3cc([N+](=O)[O-])ccc3C)o2)c1C#N,1.12%
23,O=C(O)CCc1nn2c3ccccc3n(CCN3CCCCC3)c2nc1=O,4.19%

row,Compound,"hERG current change (%, negative = inhibition) at 1uM"
1,CCOc1ccc2nc(NC(=O)COC)sc2c1,13.6%
2,O=C(O)CCCCCN1C(=O)/C(=C\c2cn(-c3ccccc3)nc2-c2cccs2)SC1=S,6%
3,COc1ccc(C(=O)NC2CCCc3ccccc32)cc1 (stereo not shown),5.31%
4,O=C(CN1CCC(Cc2ccccc2)CC1)NC(=O)NCc1ccccc1,5.43%
5,Cc1ccccc1NC(=O)/C(C#N)=C\c1cn(CC(=O)O)c2ccccc12,13.1%
6,CCN1CCN(CCCNC(=O)Cn2nc(C)n3nc(-c4ccccc4)cc3c2=O)CC1,15%
7,CCn1c(-c2ccccc2)c(C(=O)CCl)c2ccccc21,14.8%
8,CN1CCN(C(=O)N2c3ccccc3C=Cc3ccccc32)CC1,-4.3%
9,Cc1ccc(-n2c(Cl)c(Cl)[nH]c(=O)c2=O)cc1,4.01%
10,CCCOC(=O)c1cccc(NC(=O)C(C)(C)C)c1,11.7%
11,COc1ccc(NC(=O)c2cc3cc(OC)ccc3oc2=N)cc1,21.1%
12,CCCOCc1ccc(O)c2ncccc12,5.95%
13,CCCCNC(=O)COC(=O)c1ccc(F)cc1Cl,-15.7%
14,O=C(CSc1nnc2ccc(-c3ccccn3)nn12)Nc1ccc(F)cc1F,1.64%
15,C[C@@H](C(=O)NCc1ccccc1)[C@@H]1C[C@@]1(C)[C@@H](NC(=O)OCc1ccccc1)c1ccccc1,3.9%
16,CC(=O)Nc1ccc(C(=O)NNC(=O)c2cccc(C)c2)cc1,9.86%
17,CC(=O)c1ccc(NC(=O)CSc2nnc(NC(=O)C3CC3)s2)cc1,3.49%
18,O=C(Nc1ccc(N2CCOCC2)nc1)c1cccs1,10.1%
19,CSc1nsc(SC)c1C(=O)N1CCN(S(=O)(=O)c2ccc(C)cc2)C1C (stereo not shown),-0.355%
20,Cc1cccc(OCCNC(=O)c2cccc(Oc3ccc(C(F)(F)F)cc3[N+](=O)[O-])c2)c1,0.985%
21,Cc1onc(-c2c(F)cccc2Cl)c1C(=O)OCC(=O)NC(=O)NCC(C)C,32.5%
22,COn1c(-c2ccccc2)nc2ncccc21,13.5%
23,CCC(=O)N1CCc2cc(S(=O)(=O)CCC(=O)N3CCN(c4ccccc4F)CC3)ccc21,11.1%
